The record followed here is article PMC12040169 (PLOS Biology, 2025).

This is one part of the list.

This assay has as its system T1, C. trachomatis L2/434/Bu expressing GFP (CTL2-GFP).
T1 construct: L2/434/Bu GFP intracellular growth in HeLa cells
Further details: species or system HeLa; C. trachomatis total inclusion area by high-content imaging, normalised to DMSO. To be noted: total inclusion area; 28.5 h, 10 µM; inhibitor. In outline: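 After bulk GFP and resorufin fluorescence reads, cells were fixed, stained with Hoechst and imaged by high-content microscopy. Inclusion area and number (GFP) stood in for chlamydial growth, nuclei count (Hoechst) for host cell viability. MICs were derived as for the bulk readout.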
Regarding `Cc1ccc(-n2sc(=O)n(CCc3ccccc3)c2=O)cc1` [CBK113496], the “% of control remaining” value was determined as 79.6037. With `CN1CCN(C(=O)c2ccccc2NC(=O)c2ccc(C(C)(C)C)cc2)CC1` [CBK270054], the “% of control remaining” value is reported as 85.0496. `Cc1nc(C)n(CC2CN(Cc3cn4ccccc4n3)CCO2)n1` (centres unmarked) [CBK303999]: the “% of control remaining” value is 74.9271. As to `CC(=O)N1CCC(c2cc(-c3cccc(F)c3)n(C)n2)CC1` [CBK282097], the “% of control remaining” value is 83.2522. Turning to `Oc1ccc(SCCCCN2CCCCC2)cc1` [CBK033676], the “% of control remaining” value is on record as 71.2145. Turning to `COc1ccc(-n2ncc(-c3ccc(Br)cc3F)n2)cc1OC` [CBK112915], the “% of control remaining” value was determined as 87.4688. For `OCc1ccccc1-c1cnc(N2CCOCC2)c2nccn12` [CBK091265] the value was 88.1458.

Turning to `CC(C)(Oc1ccc(Br)cc1)C(=O)NCCOc1ccccc1` [CBK268287], the “% of control remaining” value worked out at 88.9165.

As to `O=C(Nc1cccc(I)c1)c1ccc(Oc2ccc(C(=O)Nc3cccc(I)c3)cc2)cc1` [CBK261201], the “% of control remaining” value was 96.4094.

Regarding `O=C(COc1ccc2c3c(c(=O)oc2c1)CCC3)Nc1ccc(S(=O)(=O)N2CCOCC2)cc1` [CBK265640], the “% of control remaining” value stood at 108.452. As for `Oc1nc(CN2CCN(Cc3ccc4c(c3)OCO4)CC2)nc2ccccc12` [CBK074355], the “% of control remaining” value came out at 106.541. Turning to `Cc1nnc(NCCN2CCOCC2)[nH]c1=O` [CBK267912], the “% of control remaining” value was 85.2025.

With `CC(=O)Oc1cc(Cl)ccc1C(=O)Nc1nnc(C(F)(F)F)s1` [CBK017569], the “% of control remaining” value is reported as 103.898.

As for `Cc1ccc(OCC(=O)NC(=S)Nc2cc(-c3nc4ncccc4o3)ccc2Cl)cc1` [CBK265214], the “% of control remaining” value is recorded as 91.8917. `CCc1c(C)sc2ncn(C3CCN(C(=O)C(C)C)CC3)c(=O)c12` [CBK282377]: the “% of control remaining” value came to 74.0035. For `CN1CCC(N(C)C(=O)Nc2ccc(C(N)=O)cc2)C1` (centres unmarked) [CBK156015] the value was 104.153. In the case of `NNC(=O)CSc1nnc2ccc(C(F)(F)F)cn12` [CBK006897], the “% of control remaining” value is on record as 116.692. With `CC(=O)Nc1cccc(NC(=O)c2cccc(Cn3cc(Cl)cn3)c2)c1` [CBK265899], the “% of control remaining” value was 106.701. With `Cc1ccc(C(=O)O)cc1N1C(=O)c2ccc(S(=O)(=O)c3ccc(C(=O)O)cc3)cc2C1=O` [CBK262747], the “% of control remaining” value is listed as 105.137.

Turning to `COc1cccc(CN2CCC(Cc3ccccc3-c3ccc(C)cc3C)(C(=O)O)CC2)c1` [CBK286420], the “% of control remaining” value is recorded as 78.8304. `Cc1nc2nc(SCc3cc(=O)n4ccccc4n3)nn2c(C)c1Cc1ccccc1` [CBK294460]: the “% of control remaining” value is 81.5994. Regarding `COc1cc(OC)cc(-c2nnc(SCc3cccc(C(=O)O)c3)[nH]2)c1` [CBK268736], the “% of control remaining” value is listed as 73.9433.

`COc1ccc(-c2nc(NS(C)(=O)=O)cc3cccnc23)cc1C` [CBK085677]: the “% of control remaining” value came to 106.349. As for `COc1ccc(-c2cc(C(=O)NCCc3ccccn3)cnc2-c2cccc(C)c2)cc1` [CBK036730], the “% of control remaining” value amounted to 102.809. Regarding `CC(=O)Nc1ccc(CCOc2nccnc2/C=C/c2ccccc2)cc1` [CBK106880], the “% of control remaining” value stood at 104.152. For `CCOC(=O)c1cnc(SC(C)C(=O)N2CCc3ccccc32)nc1N` (centres unmarked) [CBK305007], the “% of control remaining” value came to 41.177. `CCn1cc(CN(CC(C)C)C(=O)c2c(C)nc3ccccn23)cn1` [CBK306862]: the “% of control remaining” value was determined as 30.3473. In the case of `Cc1cc(-c2cn(C)nc2C2CCCCN2C(=O)C2CCCC2)on1` (centres unmarked) [CBK283404], the “% of control remaining” value is given as 106.417. For `Cc1ccc(S(=O)(=O)NCCOc2ccc(Cl)cc2)cc1[N+](=O)[O-]` [CBK263268] the value was 99.8208; for `CCN(CC)S(=O)(=O)c1c(C)[nH]c(=O)[nH]c1=O` [CBK018721], 105.813; for `Cc1ccc(SC(C)C(=O)Nn2cnnc2)cc1` (centres unmarked) [CBK268570], 105.547.

For `COc1cc(C(CC(C)NC(C)(C)C)c2ccccc2)ccc1OCc1ccccc1` (centres unmarked) [CBK017901], the “% of control remaining” value is 23.1009.

On to `O=C(CSc1nnc(CN2CCOCC2)n1-c1ccc(Cl)cc1)N1CCN(c2ccccc2)CC1` [CBK269088], for which the “% of control remaining” value stood at 92.4847. For the compound `CC(C)(C)OC(=O)N1CCC(Sc2ccc(-c3ccco3)cc2)CC1` [CBK122552], the “% of control remaining” value amounted to 85.4759. As for `N#CCSc1nc(-c2cccnc2)ccc1C(=O)O` [CBK269387], the “% of control remaining” value worked out at 76.5303. `CN(C)c1cccc(-c2ccc(Nc3ccc(N4CCOCC4)cc3)nc2)c1` [CBK037735]: the “% of control remaining” value is given as 118.566.

With `CC(Sc1nc(N)cc(=O)[nH]1)C(=O)Nc1ccc(S(N)(=O)=O)cc1` (centres unmarked) [CBK266191], the “% of control remaining” value amounted to 116.467. For the compound `CCN(CC)CCSc1nc2sc3c(c2c(=O)n1-c1ccc(OC)cc1)CCCC3` [CBK263308], the “% of control remaining” value is listed as 96.0971.

Regarding `CCn1c(Cc2c(C)[nH]c3ccccc23)nnc1SCC(=O)NC12CC3CC(CC(C3)C1)C2` [CBK267529], the “% of control remaining” value was 112.702.

`Nc1nc(SCCc2ccccc2)nc2sc3c(c12)CCCC3` [CBK263445]: the “% of control remaining” value is 105.708.

Consider `C=CCNC(=S)Nc1sc2c(c1C(=O)OCC)CC(C)CC2` (centres unmarked) [CBK268778], for which the “% of control remaining” value is given as 104.906. As to `CC1(C)CC(=O)C=C(C(=O)Nc2ccccc2N2CCCNCC2)O1` [CBK038935T], the “% of control remaining” value was 50.7932.

Regarding `Cc1ccc2nc(NCCC(=O)O)nc(-c3ccccc3)c2c1` [CBK266537], the “% of control remaining” value was 129.382. For `CC(Oc1cc(Cl)ccc1Cl)c1nnc(S)n1C` (centres unmarked) [CBK288376], the “% of control remaining” value was determined as 44.3038.

Turning to `N[C@H]1C[C@H]2C(=O)NC[C@@H](CCC(=O)NCc3cccs3)N2C1` [CBK289005], the “% of control remaining” value is listed as 105.457.

For `CC(Oc1cccc2ccccc12)C(=O)NN` (centres unmarked) [CBK261209], the “% of control remaining” value amounted to 93.1648. For `CN1C(=O)COc2ccccc2C/C=C/C[C@@H]2[C@H]1CCCN2S(=O)(=O)N1CCOCC1` [CBK292063] the value was 114.383; for `CCCC/C=C/c1cnc(N)c(Nc2ccc(OC)cc2)n1` [CBK063890], 97.2797; for `Cc1cc(COc2nc3ccccc3nc2NC(C)C(C)C)no1` (centres unmarked) [CBK174007], 92.627.

Turning to `Cc1c(Br)c([N+](=O)[O-])nn1C(C)C(=O)Nc1sc2c(c1C(N)=O)CCCC2` (centres unmarked) [CBK268914], the “% of control remaining” value came to 90.2689. For `Cc1onc(-c2ccccc2)c1C(=O)N1CCN(CCN2CCCC2)CC1` [CBK158558] the value was 104.251. As to `O=C(NCCc1ccc(Cl)cc1)C1(Cc2ccc(-c3ccncc3)cc2)CCOCC1` [CBK285570], the “% of control remaining” value is 75.1035. With `CCOc1ccccc1C(=O)Nc1ccc(O)cc1` [CBK099037], the “% of control remaining” value was 125.746.

For the compound `O=C(CSc1nnc(-c2ccccc2Cl)[nH]1)c1ccc(O)c(O)c1` [CBK267693], the “% of control remaining” value is 95.6015. For `CO/C(=N\S(=O)(=O)c1ccccc1)c1ccccc1` [CBK023221] the value was 69.3165; for `Cn1c(=O)c2c(nc(CN3CCN(Cc4ccccc4)CC3)n2CCc2ccccc2)n(C)c1=O` [CBK269523], 95.6728; for `COc1cc(CNc2nccnc2-c2ccco2)cc(OC)c1OC` [CBK037320], 95.49.

For `CCOc1ccccc1NC(=O)C(C)Oc1ccc(OC)cc1` (centres unmarked) [CBK266648], the “% of control remaining” value is reported as 5.897. For `Clc1ccc(-c2nccnc2OCc2ccccn2)cc1Cl` [CBK107108] the value was 93.3423. Turning to `CC(C)c1ccsc1C(=O)N1CCC2(C1)NC(=O)NC2=O` (centres unmarked) [CBK305188], the “% of control remaining” value was found to be 78.6882. For the compound `O=C(NCC1CCOC1)c1ccc(-c2ccccc2CO)cc1` (centres unmarked) [CBK306616], the “% of control remaining” value is on record as 36.4633. For `Cc1ccccc1Cc1cccc(C2CCN(S(=O)(=O)c3cn[nH]c3)CC2)n1` [CBK286125] the value was 107.201. `COC(=O)c1c(NC(=S)Nc2cnccn2)sc2c1CCC2` [CBK266935]: the “% of control remaining” value came to 95.7427. On to `O=C(O)CSc1nc2c(-c3ccco3)c3c(nc2o1)CCCC3` [CBK269266], for which the “% of control remaining” value turned out to be 99.8774. For `OC1CCC(Nc2cncc(-c3cccc(F)c3)n2)CC1` (centres unmarked) [CBK065449] the value was 121.425; for `CCNC(=O)N(C)c1c(CC)nc2c(OCc3ccc(S(C)(=O)=O)cc3)cccn12` [CBK147797], 93.9399; for `Cn1cc(CC(=O)Nc2ccc(N3CCNCC3)nc2)c2ccccc21` [CBK028275T], 72.4573. Take `OCCN(Cc1ccccc1)Cc1ccc(Cl)c(Cl)c1` [CBK261908]: the “% of control remaining” value came out at 94.2503. For `c1ccc2c(c1)[nH]c1nc(SCCN3CCCCC3)nnc12` [CBK263249], the “% of control remaining” value is 87.7134.

For `Cc1ccc(S(=O)(=O)NC(C)(C)CSc2ccccc2)cc1` [CBK268354], the “% of control remaining” value came to 102.162. On to `COc1ccc(OC)c(Nc2nc(NCC3CCCO3)c3ccccc3n2)c1` (centres unmarked) [CBK268403C], for which the “% of control remaining” value worked out at 33.991. As to `Cc1cccn2c(=O)c(/C=C3\SC(=S)N(Cc4ccccc4)C3=O)c(NCCCn3ccnc3)nc12` [CBK263833], the “% of control remaining” value is recorded as 101.707.

With `COc1ccc2sc(N(Cc3cccnc3)C(=O)CCc3ccccc3)nc2c1` [CBK294423], the “% of control remaining” value turned out to be 97.9452. Turning to `C#CCN1C(=O)C2(OCCO2)c2cccc(C)c21` [CBK019069], the “% of control remaining” value is reported as 94.7008. Turning to `COc1cc(NS(=O)(=O)c2ccc(NC(=O)c3c(C)noc3C)cc2)nc(OC)n1` [CBK268151], the “% of control remaining” value was found to be 100.698. Regarding `CCN(Cc1ccccc1)[C@@H](CO)Cc1ccc(OC)cc1` [CBK073856T], the “% of control remaining” value stood at 114.822. For `CCNC(=O)NC[C@H]1C[C@@H]2CCN1C[C@@H]2c1cc(C2CCCC2)nn1C` [CBK288743] the value was 69.5001; for `CC(C)CCNC(=O)N1CCNC(=O)C1` [CBK155874], 96.9484. As for `O=C(CSc1cnn[nH]1)Nc1cccc(C(F)(F)F)c1` [CBK269888], the “% of control remaining” value was 70.8001. `CCOc1ccc(N2C(=O)CC(N3CCN(c4ccc(C(=O)c5ccncc5)cc4)CC3)C2=O)cc1` (centres unmarked) [CBK269124]: the “% of control remaining” value was determined as 68.7634.
